From article PMC6900781
These are yes or no findings as the source states them, for the method shown. Some results given as binding are weak or reduced against the parent protein; the word gives no strength. For some of these results: Where a sequence is shown, tags or fusion partners need not be part of it.

Chains of the proteins cited; added tags and fusions are not shown. Lines headed by an entry give the natural chain unless they say otherwise; changes in a name come on top. Residues count along the entry.
UniProt Q9VEN2: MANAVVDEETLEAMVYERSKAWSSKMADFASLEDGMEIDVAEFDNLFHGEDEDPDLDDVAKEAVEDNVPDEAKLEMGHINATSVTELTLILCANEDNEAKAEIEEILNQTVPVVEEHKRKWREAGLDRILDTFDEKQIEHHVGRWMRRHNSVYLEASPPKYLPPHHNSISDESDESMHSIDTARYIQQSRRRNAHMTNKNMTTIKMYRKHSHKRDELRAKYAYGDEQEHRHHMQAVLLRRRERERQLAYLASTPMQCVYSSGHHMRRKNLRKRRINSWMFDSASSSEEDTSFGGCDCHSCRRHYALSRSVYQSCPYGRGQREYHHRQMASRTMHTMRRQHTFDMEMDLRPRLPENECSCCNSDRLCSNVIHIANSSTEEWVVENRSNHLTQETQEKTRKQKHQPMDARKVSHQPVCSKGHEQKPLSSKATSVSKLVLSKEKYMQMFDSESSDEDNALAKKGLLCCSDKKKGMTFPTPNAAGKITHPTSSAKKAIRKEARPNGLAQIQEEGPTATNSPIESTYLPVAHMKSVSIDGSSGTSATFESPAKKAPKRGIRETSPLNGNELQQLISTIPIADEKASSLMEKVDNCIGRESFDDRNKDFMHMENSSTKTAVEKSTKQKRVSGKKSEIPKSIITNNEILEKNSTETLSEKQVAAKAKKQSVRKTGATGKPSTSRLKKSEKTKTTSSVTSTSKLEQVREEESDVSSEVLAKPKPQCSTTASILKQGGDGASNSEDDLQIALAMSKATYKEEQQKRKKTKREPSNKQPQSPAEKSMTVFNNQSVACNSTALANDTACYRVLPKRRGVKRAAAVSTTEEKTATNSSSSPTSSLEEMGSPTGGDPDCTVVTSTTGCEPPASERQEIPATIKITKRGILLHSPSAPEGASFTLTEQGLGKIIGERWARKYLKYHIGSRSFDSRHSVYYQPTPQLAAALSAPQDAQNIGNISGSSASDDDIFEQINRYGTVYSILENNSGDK
CAL1(1-407)-GFP-LacIw: residues 1-407 of Q9VEN2
UniProt Q9V6Q2: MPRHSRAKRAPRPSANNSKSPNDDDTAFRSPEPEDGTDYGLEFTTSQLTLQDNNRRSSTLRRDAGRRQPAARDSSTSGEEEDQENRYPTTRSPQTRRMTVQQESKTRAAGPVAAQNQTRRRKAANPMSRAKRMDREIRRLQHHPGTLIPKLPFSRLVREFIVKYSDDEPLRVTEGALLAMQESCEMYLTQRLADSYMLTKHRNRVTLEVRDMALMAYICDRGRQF

What was measured:
[1] = biological target: CAL1-GFP-LacI (Drosophila melanogaster) (UniProt Q9VEN2); assay: LacI/LacO tethering and recruitment assay (immunofluorescence); bait fused to GFP-LacI tethered to chromosomal LacO arrays in human U2OS cells; HA- or V5-tagged prey transiently co-expressed; IF 48 h after transfection, prey intensity at the LacO spot or % of cells; no third Drosophila centromere protein co-expressed
[2] = biological target: T1, GFP-LacI-dCENP-C(1009-1411) (Drosophila melanogaster) (UniProt Q9VHP9); assay: as above
T1 sequence: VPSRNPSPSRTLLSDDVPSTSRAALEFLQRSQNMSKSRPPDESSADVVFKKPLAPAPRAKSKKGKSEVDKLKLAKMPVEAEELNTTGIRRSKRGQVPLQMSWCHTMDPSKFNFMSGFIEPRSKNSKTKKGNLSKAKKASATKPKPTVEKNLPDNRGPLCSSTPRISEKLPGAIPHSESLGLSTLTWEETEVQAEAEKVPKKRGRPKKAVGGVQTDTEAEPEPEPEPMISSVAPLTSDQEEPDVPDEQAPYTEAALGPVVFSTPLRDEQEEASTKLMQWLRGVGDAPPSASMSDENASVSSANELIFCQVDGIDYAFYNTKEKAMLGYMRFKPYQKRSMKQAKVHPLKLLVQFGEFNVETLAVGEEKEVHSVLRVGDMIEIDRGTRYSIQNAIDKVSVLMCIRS

[3] = biological target: CAL1-GFP-LacI (Drosophila melanogaster) (UniProt Q9VEN2); assay: LacI/LacO tethering and recruitment assay (immunofluorescence); as a1, but with a third Drosophila centromere protein (CAL1-V5, dCENP-A-HA or -V5, or HA-dCENP-C) co-expressed, as named in the row
[4] = biological target: CAL1(1-160)-GFP-LacIw (Drosophila melanogaster) (UniProt Q9VEN2); assay: LacI/LacO tethering and recruitment assay (immunofluorescence); bait fused to the IPTG-sensitive GFP-LacIw tethered to LacO arrays in U2OS cells, TetR marks the arrays; without IPTG
[5] = biological target: CAL1(1-407)-GFP-LacIw (Drosophila melanogaster) (UniProt Q9VEN2); assay: as above
[6] = biological target: CAL1-GFP-LacI (Drosophila melanogaster) (UniProt Q9VEN2); assay: ChIP-qPCR at LacO DNA; HA-tagged human protein immunoprecipitated with HA antibody from cross-linked U2OS-LacO chromatin in the presence of Drosophila centromere proteins targeted to LacO; qPCR of LacO and alpha-satellite DNA
[7] = biological target: T2, GFP-LacI-dCENP-C (Drosophila melanogaster) (UniProt Q9VHP9); assay: as above
T2 sequence: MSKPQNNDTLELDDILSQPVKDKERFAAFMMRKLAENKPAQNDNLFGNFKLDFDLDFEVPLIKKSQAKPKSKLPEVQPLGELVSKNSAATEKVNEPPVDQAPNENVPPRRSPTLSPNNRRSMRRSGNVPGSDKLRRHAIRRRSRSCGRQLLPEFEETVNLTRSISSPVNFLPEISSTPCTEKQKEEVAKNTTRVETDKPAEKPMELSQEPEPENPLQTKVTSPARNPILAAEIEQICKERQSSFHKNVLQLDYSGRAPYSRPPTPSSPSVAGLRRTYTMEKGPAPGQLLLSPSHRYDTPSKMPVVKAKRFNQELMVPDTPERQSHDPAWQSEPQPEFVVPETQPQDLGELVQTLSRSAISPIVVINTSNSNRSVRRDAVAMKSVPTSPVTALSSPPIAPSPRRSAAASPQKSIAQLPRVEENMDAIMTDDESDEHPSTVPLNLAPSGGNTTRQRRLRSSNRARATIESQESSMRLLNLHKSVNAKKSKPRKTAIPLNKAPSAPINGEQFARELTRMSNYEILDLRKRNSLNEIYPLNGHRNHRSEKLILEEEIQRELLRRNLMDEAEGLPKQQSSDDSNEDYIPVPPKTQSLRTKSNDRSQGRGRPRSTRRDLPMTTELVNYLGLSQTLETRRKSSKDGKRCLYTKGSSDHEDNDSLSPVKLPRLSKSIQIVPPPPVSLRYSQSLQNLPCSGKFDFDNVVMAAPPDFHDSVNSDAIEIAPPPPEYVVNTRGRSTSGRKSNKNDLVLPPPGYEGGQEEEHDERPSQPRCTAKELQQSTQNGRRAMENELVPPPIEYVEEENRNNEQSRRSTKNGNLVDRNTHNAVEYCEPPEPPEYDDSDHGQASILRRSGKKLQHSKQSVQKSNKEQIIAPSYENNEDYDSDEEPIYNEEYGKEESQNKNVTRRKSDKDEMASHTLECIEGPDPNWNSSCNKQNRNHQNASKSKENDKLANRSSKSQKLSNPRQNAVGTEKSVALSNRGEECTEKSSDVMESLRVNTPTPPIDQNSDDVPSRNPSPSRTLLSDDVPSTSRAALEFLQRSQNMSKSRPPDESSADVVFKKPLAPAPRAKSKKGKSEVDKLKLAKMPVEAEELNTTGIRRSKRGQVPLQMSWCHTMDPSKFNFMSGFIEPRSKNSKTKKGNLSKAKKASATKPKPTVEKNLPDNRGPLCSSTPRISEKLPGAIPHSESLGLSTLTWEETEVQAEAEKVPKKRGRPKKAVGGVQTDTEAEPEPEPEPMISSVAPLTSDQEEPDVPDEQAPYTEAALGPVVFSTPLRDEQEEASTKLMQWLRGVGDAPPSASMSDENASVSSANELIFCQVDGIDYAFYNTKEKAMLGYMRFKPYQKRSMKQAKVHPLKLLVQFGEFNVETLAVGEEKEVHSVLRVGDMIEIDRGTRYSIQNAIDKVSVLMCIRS

[8] = biological target: dCENP-A-GFP-LacI (Drosophila melanogaster) (UniProt Q9V6Q2); assay: as above
[9] = biological target: dCENP-A-GFP-LacIw (Drosophila melanogaster) (UniProt Q9V6Q2); assay: LacI/LacO tethering and recruitment assay (immunofluorescence); bait fused to the IPTG-sensitive GFP-LacIw tethered to LacO arrays in U2OS cells, TetR marks the arrays; without IPTG
[10] = biological target: T2, GFP-LacI-dCENP-C (Drosophila melanogaster); assay: LacI/LacO tethering and recruitment assay (immunofluorescence); bait fused to GFP-LacI tethered to chromosomal LacO arrays in human U2OS cells; HA- or V5-tagged prey transiently co-expressed; IF 48 h after transfection, prey intensity at the LacO spot or % of cells; no third Drosophila centromere protein co-expressed
[11] = biological target: dCENP-A-GFP-LacIw (Drosophila melanogaster) (UniProt Q9V6Q2); assay: condition: only after IPTG (15 mM, 1 h), when only the nucleosomal pool of dCENP-A-GFP-LacIw is left at the LacO arrays; LacI/LacO tethering and recruitment assay (immunofluorescence); as a4, after 15 mM IPTG for 1 h 48 h after transfection: the LacIw tether is released and only chromatin-assembled (nucleosomal) dCENP-A stays at LacO
[12] = biological target: CAL1-GFP-LacI (Drosophila melanogaster) (UniProt Q9VEN2); assay: LacI/LacO tethering and recruitment assay (immunofluorescence); bait fused to GFP-LacI tethered to LacO arrays in U2OS cells; endogenous human centromere proteins detected at LacO by IF
[13] = biological target: T2, GFP-LacI-dCENP-C (Drosophila melanogaster); assay: as above
[14] = biological target: dCENP-A-GFP-LacI (Drosophila melanogaster) (UniProt Q9V6Q2); assay: as above
[15] = biological target: dCENP-A-GFP-LacI (Drosophila melanogaster) (UniProt Q9V6Q2); assay: LacI/LacO tethering and recruitment assay (immunofluorescence); as a1, but with a third Drosophila centromere protein (CAL1-V5, dCENP-A-HA or -V5, or HA-dCENP-C) co-expressed, as named in the row
[16] = biological target: dH3^L1α2+C-GFP-LacI (Drosophila melanogaster) (UniProt P02299+Q9V6Q2); assay: LacI/LacO tethering and recruitment assay (immunofluorescence); bait fused to GFP-LacI tethered to chromosomal LacO arrays in human U2OS cells; HA- or V5-tagged prey transiently co-expressed; IF 48 h after transfection, prey intensity at the LacO spot or % of cells; no third Drosophila centromere protein co-expressed
[17] = biological target: dH3^L1α2-GFP-LacI (Drosophila melanogaster) (UniProt P02299+Q9V6Q2); assay: as above
[18] = biological target: dCENP-A-GFP-LacI (Drosophila melanogaster) (UniProt Q9V6Q2); assay: as above

For “CAL1(1-407)-HA (from UniProt Q9VEN2 1-407) (domain or fragment)”, the binding [1] was “binds” and the binding [2] was “no binding”.
In the case of dCENP-A-V5 (from UniProt Q9V6Q2 1-225), the binding [3] was “binds”.
For “dCENP-A (co-expressed in the IPTG experiments, no tag named) (from UniProt Q9V6Q2 1-225)”, the binding [4] was “binds” and the binding [5] was “binds”.
In the case of “HA-tagged hCENP-A (from UniProt P49450 1-140)”, the binding [6] was “no binding”, the binding [7] was “no binding” and the binding [8] was “no binding”.
CAL1-HA (from UniProt Q9VEN2 1-979) was tested, and the binding [9] was “binds”, the binding [10] was “binds” and the binding [2] was “binds”. The binding [11] was “no binding”.
With “hCENP-A (endogenous) (from UniProt P49450 1-140)” the binding [12] was “no binding”, the binding [13] was “no binding” and the binding [14] was “no binding”.
For CAL1-V5 (from UniProt Q9VEN2 1-979), the binding [15] was “binds”, the binding [16] was “binds” and the binding [17] was “binds weakly”.
“CAL1(101-407)-HA (from UniProt Q9VEN2 101-407) (domain or fragment)” was tested, and the binding [1] was “binds”.
For “CAL1(699-979)-HA (from UniProt Q9VEN2 699-979) (domain or fragment)”, the binding [1] was “no binding”, the binding [10] was “binds” and the binding [2] was “binds”.
With “CAL1(392-722)-HA (from UniProt Q9VEN2 392-722) (domain or fragment)” the binding [1] was “no binding”.
In the case of “HA-tagged HJURP (from UniProt Q8NCD3 1-748)”, the binding [6] was “no binding”, the binding [7] was “no binding” and the binding [8] was “no binding”.
In the case of “CAL1(1-160)-HA (from UniProt Q9VEN2 1-160) (domain or fragment)”, the binding [1] was “no binding” and the binding [18] was “binds”.
